Our source for the binding values is PMC12130793, “A conserved aspartate residue in [4Fe-4S]-containing HypD is required for [NiFe]-cofactor biosynthesis and for efficient interaction of the HypCD scaffold complex with HypE” (Metallomics: Integrated Biometal Science, 2025).

Common to all, as to test: pull-down; co-purification from BL21(DE3) cells by the StrepII tag (on HypD, HypC or HybG) under anoxic conditions; 5 ug of isolated protein on SDS-PAGE, immunoblot with anti-HypD or anti-HypE antiserum (1:1000)
Test [1] deals with T1, HypD_(D98A)-HybG-Strep complex (E. coli) (UniProt P0AAM7+P24192).
T1 sequence 1: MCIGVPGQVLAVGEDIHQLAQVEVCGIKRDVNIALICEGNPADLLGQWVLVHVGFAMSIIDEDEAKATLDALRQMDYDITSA
T1 sequence 2: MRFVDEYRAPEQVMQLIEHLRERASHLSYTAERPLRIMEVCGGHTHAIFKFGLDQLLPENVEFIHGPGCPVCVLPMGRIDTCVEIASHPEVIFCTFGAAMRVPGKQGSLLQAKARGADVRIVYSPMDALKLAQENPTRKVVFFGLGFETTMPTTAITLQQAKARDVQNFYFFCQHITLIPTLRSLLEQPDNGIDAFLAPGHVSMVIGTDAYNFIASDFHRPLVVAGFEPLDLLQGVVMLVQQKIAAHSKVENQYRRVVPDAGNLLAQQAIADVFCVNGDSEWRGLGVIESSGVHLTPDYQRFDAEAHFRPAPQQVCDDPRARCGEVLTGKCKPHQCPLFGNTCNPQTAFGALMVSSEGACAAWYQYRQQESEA

Test [2] deals with T2, native HypD-HybG-Strep complex (E. coli) (UniProt P0AAM7+P24192).
T2 sequence 1: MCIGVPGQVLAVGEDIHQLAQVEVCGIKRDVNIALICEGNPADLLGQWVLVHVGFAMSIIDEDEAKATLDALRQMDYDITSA
T2 sequence 2: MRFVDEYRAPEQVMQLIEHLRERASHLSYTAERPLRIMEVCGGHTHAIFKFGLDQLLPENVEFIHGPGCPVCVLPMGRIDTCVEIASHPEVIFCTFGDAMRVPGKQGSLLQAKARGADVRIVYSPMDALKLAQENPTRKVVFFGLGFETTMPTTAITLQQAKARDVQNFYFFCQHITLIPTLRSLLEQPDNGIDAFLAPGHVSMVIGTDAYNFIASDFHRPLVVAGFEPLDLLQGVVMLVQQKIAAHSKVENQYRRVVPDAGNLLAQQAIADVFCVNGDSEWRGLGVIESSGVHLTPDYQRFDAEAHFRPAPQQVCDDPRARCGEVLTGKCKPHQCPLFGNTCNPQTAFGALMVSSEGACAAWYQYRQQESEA

Test [3] deals with T3, N-terminally Strep-tagged HypD (E. coli) (UniProt P24192).
T3 sequence: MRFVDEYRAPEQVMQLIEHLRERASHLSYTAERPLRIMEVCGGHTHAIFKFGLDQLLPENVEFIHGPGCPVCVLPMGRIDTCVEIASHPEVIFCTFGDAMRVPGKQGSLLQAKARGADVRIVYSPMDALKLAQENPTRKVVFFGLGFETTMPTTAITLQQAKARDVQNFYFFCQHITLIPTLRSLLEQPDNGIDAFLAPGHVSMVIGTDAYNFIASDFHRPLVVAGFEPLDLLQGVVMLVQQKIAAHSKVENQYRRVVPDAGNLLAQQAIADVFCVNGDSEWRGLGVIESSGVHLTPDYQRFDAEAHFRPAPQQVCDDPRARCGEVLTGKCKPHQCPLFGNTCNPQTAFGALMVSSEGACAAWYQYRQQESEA

Test [4] concerns the target T4, HypD_(D98A)-HypC-Strep complex (E. coli) (UniProt P0AAM3+P24192).
T4 sequence 1: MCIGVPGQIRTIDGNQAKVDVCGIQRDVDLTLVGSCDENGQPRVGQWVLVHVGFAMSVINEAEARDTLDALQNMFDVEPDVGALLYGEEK
T4 sequence 2: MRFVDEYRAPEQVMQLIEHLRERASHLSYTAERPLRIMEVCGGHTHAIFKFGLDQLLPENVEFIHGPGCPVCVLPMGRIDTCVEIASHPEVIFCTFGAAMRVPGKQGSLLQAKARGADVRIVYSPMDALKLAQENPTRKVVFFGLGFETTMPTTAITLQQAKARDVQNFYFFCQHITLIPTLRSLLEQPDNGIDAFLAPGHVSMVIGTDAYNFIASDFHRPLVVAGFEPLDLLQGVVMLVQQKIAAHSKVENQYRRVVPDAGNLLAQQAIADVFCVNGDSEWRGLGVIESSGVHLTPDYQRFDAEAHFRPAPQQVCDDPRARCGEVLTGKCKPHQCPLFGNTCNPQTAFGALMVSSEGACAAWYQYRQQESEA

Test [5] has as its target T5, native HypD-HypC-Strep complex (E. coli) (UniProt P0AAM3+P24192).
T5 sequence 1: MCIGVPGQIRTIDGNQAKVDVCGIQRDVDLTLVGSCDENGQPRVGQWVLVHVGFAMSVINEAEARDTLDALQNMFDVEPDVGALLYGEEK
T5 sequence 2: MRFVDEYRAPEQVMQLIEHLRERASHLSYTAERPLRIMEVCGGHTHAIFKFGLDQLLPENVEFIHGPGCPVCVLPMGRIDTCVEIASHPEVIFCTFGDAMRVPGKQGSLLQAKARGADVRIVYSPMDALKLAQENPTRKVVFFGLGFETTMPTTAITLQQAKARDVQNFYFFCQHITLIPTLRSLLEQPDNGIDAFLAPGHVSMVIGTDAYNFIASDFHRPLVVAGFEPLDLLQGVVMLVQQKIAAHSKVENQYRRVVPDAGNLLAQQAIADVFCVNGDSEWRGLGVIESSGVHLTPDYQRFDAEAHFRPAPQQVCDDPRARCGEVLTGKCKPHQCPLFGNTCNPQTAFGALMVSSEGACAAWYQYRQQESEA

Test [6] addresses T6, Strep-tagged HypD_(D98A) (E. coli) (UniProt P24192).
T6 sequence: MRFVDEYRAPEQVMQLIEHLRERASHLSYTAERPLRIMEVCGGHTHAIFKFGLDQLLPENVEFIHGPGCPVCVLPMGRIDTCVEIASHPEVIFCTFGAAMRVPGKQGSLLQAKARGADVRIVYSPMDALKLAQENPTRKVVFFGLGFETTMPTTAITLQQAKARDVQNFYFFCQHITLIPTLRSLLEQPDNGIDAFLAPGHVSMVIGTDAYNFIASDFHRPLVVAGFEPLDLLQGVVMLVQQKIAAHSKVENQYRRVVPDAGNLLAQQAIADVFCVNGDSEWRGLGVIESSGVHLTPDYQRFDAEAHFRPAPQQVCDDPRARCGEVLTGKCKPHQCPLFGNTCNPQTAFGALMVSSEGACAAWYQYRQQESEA

Test [7] deals with T7, HybG with a C-terminal StrepII-tag (E. coli) (UniProt P0AAM7).
T7 sequence: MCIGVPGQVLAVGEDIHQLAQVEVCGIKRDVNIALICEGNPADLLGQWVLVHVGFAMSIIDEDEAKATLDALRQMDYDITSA

These are yes or no findings as the source states them, for the method shown. In cells and extracts the contact can be indirect. Some results given as binding are weak or reduced against the parent protein; the word gives no strength. For some assays here: Sequences can lack the tags named with a protein.

B1: HypE (co-expressed from phypDEF-hybG) (protein, UniProt P24193 1-336)
chain: MNNIQLAHGSGGQAMQQLINSLFMEAFANPWLAEQEDQARLDLAQLVAEGDRLAFSTDSYVIDPLFFPGGNIGKLAICGTANDVAVSGAIPRYLSCGFILEEGLPMETLKAVVTSMAETARAAGIAIVTGDTKVVQRGAVDKLFINTAGMGAIPANIHWGAQTLTAGDVLLVSGTLGDHGATILNLREQLGLDGELVSDCAVLTPLIQTLRDIPGVKALRDATRGGVNAVVHEFAAACGCGIELSEAALPVKPAVRGVCELLGLDALNFANEGKLVIAVERNAAEQVLAALHSHPLGKDAALIGEVVERKGVRLAGLYGVKRTLDLPHAEPLPRIC
Turning to B1, the binding result in test [1] is listed as “binds weakly”; in test [2], “binds”.

B2: HypE (in cells carrying phypD or phypDC) (protein, UniProt P24193 1-336)
chain: MNNIQLAHGSGGQAMQQLINSLFMEAFANPWLAEQEDQARLDLAQLVAEGDRLAFSTDSYVIDPLFFPGGNIGKLAICGTANDVAVSGAIPRYLSCGFILEEGLPMETLKAVVTSMAETARAAGIAIVTGDTKVVQRGAVDKLFINTAGMGAIPANIHWGAQTLTAGDVLLVSGTLGDHGATILNLREQLGLDGELVSDCAVLTPLIQTLRDIPGVKALRDATRGGVNAVVHEFAAACGCGIELSEAALPVKPAVRGVCELLGLDALNFANEGKLVIAVERNAAEQVLAALHSHPLGKDAALIGEVVERKGVRLAGLYGVKRTLDLPHAEPLPRIC
Regarding B2, the binding result in test [3] is “no binding”; in test [4], “binds weakly”; in test [5] it was “binds”; in test [6] it was “no binding”.

B3: HypD (native, untagged) (natural protein, E. coli, UniProt P24192 1-373, looked up)
chain: MRFVDEYRAPEQVMQLIEHLRERASHLSYTAERPLRIMEVCGGHTHAIFKFGLDQLLPENVEFIHGPGCPVCVLPMGRIDTCVEIASHPEVIFCTFGDAMRVPGKQGSLLQAKARGADVRIVYSPMDALKLAQENPTRKVVFFGLGFETTMPTTAITLQQAKARDVQNFYFFCQHITLIPTLRSLLEQPDNGIDAFLAPGHVSMVIGTDAYNFIASDFHRPLVVAGFEPLDLLQGVVMLVQQKIAAHSKVENQYRRVVPDAGNLLAQQAIADVFCVNGDSEWRGLGVIESSGVHLTPDYQRFDAEAHFRPAPQQVCDDPRARCGEVLTGKCKPHQCPLFGNTCNPQTAFGALMVSSEGACAAWYQYRQQESEA
notes: Carries a [4Fe-4S] cluster; also called native HypD; WT HypD; source: E. coli BL21(DE3), co-expressed with HypC-Strep (phypDC) or with HypE, HypF and HybG-Strep (phypDEF-hybG); co-purified anaerobically
For B3, in test [7], the binding entry is on record as “binds”.

B4: HypD_(D98A) (untagged) (natural protein, E. coli, UniProt P24192 1-373, looked up)
chain: MRFVDEYRAPEQVMQLIEHLRERASHLSYTAERPLRIMEVCGGHTHAIFKFGLDQLLPENVEFIHGPGCPVCVLPMGRIDTCVEIASHPEVIFCTFGAAMRVPGKQGSLLQAKARGADVRIVYSPMDALKLAQENPTRKVVFFGLGFETTMPTTAITLQQAKARDVQNFYFFCQHITLIPTLRSLLEQPDNGIDAFLAPGHVSMVIGTDAYNFIASDFHRPLVVAGFEPLDLLQGVVMLVQQKIAAHSKVENQYRRVVPDAGNLLAQQAIADVFCVNGDSEWRGLGVIESSGVHLTPDYQRFDAEAHFRPAPQQVCDDPRARCGEVLTGKCKPHQCPLFGNTCNPQTAFGALMVSSEGACAAWYQYRQQESEA
notes: HypD of E. coli with the D98A exchange, without a tag; source: co-purified anaerobically
As for B4, the binding entry in test [7] is “binds”.
